Consider 82 compounds from PubChem BioAssay AID1346428 (National Center for Advancing Translational Sciences (NCATS), 2018).

Out of some 48,000 compounds screened, about 1,200 (2.5%) were called active. Another 2% or so got no clear call; they are omitted.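 The calls were made as follows: active = activation of at least 60% and not above a set upper limit (about 1 call in 100 departs from these limits); inconclusive = activation of 40% to 60%, or above that upper limit; inactive = activation under 40%.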 The list shows a part of the results.

UniProt O75388, sequence (O75388 whole entry, looked up, the tested form may be a part): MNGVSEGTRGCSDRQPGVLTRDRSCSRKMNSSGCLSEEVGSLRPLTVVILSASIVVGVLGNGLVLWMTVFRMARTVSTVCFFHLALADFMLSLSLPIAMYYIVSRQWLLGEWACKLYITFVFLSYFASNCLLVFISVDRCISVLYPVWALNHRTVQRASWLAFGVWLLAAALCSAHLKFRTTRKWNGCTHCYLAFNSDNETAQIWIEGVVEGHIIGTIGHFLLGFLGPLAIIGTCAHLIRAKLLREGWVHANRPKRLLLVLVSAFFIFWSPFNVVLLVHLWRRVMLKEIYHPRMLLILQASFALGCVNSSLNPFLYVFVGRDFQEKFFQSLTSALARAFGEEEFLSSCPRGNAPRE

The assay addresses Probable G-protein coupled receptor 32 (Homo sapiens) (UniProt O75388). Briefly: qHTS for Agonists of Human Resolvin D1 Receptor DRV1. The note with it: CHO-K1 GPR32 beta-arrestin PathHunter luminescence, 90 min; at 76.9 µM; hits give high values; zero percent set by DMSO-only wells. The essentials:
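PathHunter enzyme-fragment complementation, CHO-K1 GPR32 stable line; 2,500 cells/well, overnight attach; cpd 90 min 37 °C 5% CO2; detection reagent 1 h RT; chemiluminescence. DMSO = EC0.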
For `Cc1cc(N2CCC(C)CC2)nc2ccc(NC(=O)Cc3c(F)cccc3Cl)cc12`, the activation is inactive: 17.8%.

Regarding `Cc1ccc(Cn2cc(S(=O)(=O)c3cccc(Cl)c3)c(=O)c3cc(F)c(N4CCCCC4)cc32)cc1`, the activation is inactive: -11.1%.

Turning to `CCOC(=O)N1CCN(C(=O)CN(c2ccccc2F)S(=O)(=O)c2ccc(C)cc2)CC1`, the activation is inactive: 0.32%.

For the compound `COC(=O)c1c(NC(=O)Cc2coc3cc(C)ccc23)sc2c1CCC2`, the activation was inactive: -6.71%.

Consider `Cc1ccc(Cl)cc1NC(=O)CSc1nccn1C`, for which the activation was inactive: -10.5%.

On to `Cc1cc(C)cc(NC(=O)CSc2nc(=O)n(CCN3CCOCC3)c3c2CCC3)c1`, for which the activation was inactive: -0.887%.

On to `O=C(NCc1cccs1)c1ccc2c(c1)N(Cc1cccc(F)c1)C(=O)c1ccccc1S2`, for which the activation was inactive: -4.28%.

Turning to `CCOC(=O)c1noc2nc(C)n(CC(=O)NC(C)CC)c(=O)c12` (configuration not stated), the activation is inactive: -9.47%.

For `CC(=O)c1cccc(NC(=O)CSc2nc(=O)n(Cc3ccco3)c3c2CCC3)c1`, the activation is inactive: 11.6%.

As for `CCOc1ccccc1CNC(=O)c1ccc2c(c1)N(Cc1ccc(C)cc1)CCS2`, the activation is inactive: -27.1%.

For the compound `CCCCN(CC)C(=O)c1nn(C)c2c1CSc1ccccc1-2`, the activation was inactive: -11%.

Take `Cc1oc(-c2cccc(Cl)c2)nc1CS(=O)(=O)CC(=O)NC(C)CCc1ccccc1` (configuration not stated): the activation was inactive: 15.6%.

Turning to `O=C(CCC1N=C2c3ccccc3N=C(SCc3ccc(F)cc3)N2C1=O)NCCc1ccccc1` (configuration not stated), the activation is inactive: -33.7%.

Take `CCOc1ccc(/C=C/c2nc(C#N)c(NCc3ccccc3)o2)cc1`: the activation was inactive: -14.1%.

For the compound `O=C(NCCc1ccccc1Cl)C1CCN(c2nc3ccccc3nc2C(F)(F)F)CC1`, the activation was inactive: -36.4%.

Consider `COc1ccc(-n2c(-c3ccco3)nc3c(cnn3-c3ccc(Cl)cc3)c2=O)cc1`, for which the activation was inactive: 30.4%.

`CC1(C)O[C@H]2[C@@H](O1)[C@@H](C(=O)Nc1ccccc1C(F)(F)F)O[C@@H]1OC(C)(C)O[C@@H]12`: the activation was inactive: -0.883%.

Turning to `O=C(CSc1ccc(-c2cccs2)nn1)Nc1ccccc1C(F)(F)F`, the activation was inactive: -7.46%.

On to `Cc1ccc(NC(=O)C2CCCN(C(=O)c3cnn(-c4ccc(F)cc4)c3-n3cccc3)C2)c(Cl)c1` (configuration not stated), for which the activation was inactive: -2.12%.

As for `Cc1ccccc1CNC(=O)C(C)N(c1ccccc1)S(C)(=O)=O` (configuration not stated), the activation is inactive: -7.86%.

As for `COc1cccc(OC)c1OCCNCC1COc2ccccc2O1` (configuration not stated), the activation was inactive: 0.687%.

With `COc1ccc(Cl)cc1NC(=O)C(C)Sc1nc2c(c(=O)[nH]1)CCCC2` (configuration not stated), the activation is inactive: 15.7%.

As to `Cc1sc2ncn(CC(=O)Nc3ccc(C(C)C)cc3)c(=O)c2c1S(=O)(=O)N1CCN(c2ncccn2)CC1`, the activation is inactive: 0.282%.

As for `Cc1cccc(-c2noc(-c3cccnc3NCc3ccc(Cl)cc3)n2)c1`, the activation was inactive: -7.06%.

As to `CC1(C)N=C(SCc2ccccc2Cl)c2ccccc2N1`, the activation is inactive: -5.04%.

Consider `Cc1ccc(S(=O)(=O)c2nnn3c2nc(NC(C)C)c2cc(Cl)ccc23)cc1C`, for which the activation was inactive: -0.0247%.

Consider `COc1ccc2c(c1)sc1ncc(C(=O)NCc3ccccc3F)c(=O)n12`, for which the activation is inactive: -8.07%.

As for `Cc1ccccc1C(=O)N1CC(=O)Nc2ccc(Cl)cc2C1c1ccccc1` (configuration not stated), the activation was inactive: -21.1%.

As to `O=C(CCSCc1cccc(Cl)c1)N1CCN(c2ccc(Cl)cc2)CC1`, the activation was inactive: -29.1%.

With `C#CCn1c(=NC(=O)c2ccc3c(c2)OCCO3)sc2cc(OC)c(OC)cc21`, the activation is inactive: -0.731%.

As for `COc1ccc(CCNC(=O)CCCCn2c(=O)c3ccccc3n(CC(=O)Nc3c(C)cccc3C)c2=O)cc1OC`, the activation was inactive: -3.58%.

With `O=C(c1cccc(Cl)c1)N1c2nc(-c3ccco3)nn2C2(CCCCC2)[C@@H]2CCCC[C@@H]21`, the activation is inactive: -7.5%.

With `CCOc1ccc(NS(=O)(=O)c2ccc(C(=O)N(C)C)s2)cc1`, the activation is inactive: 5.24%.

Regarding `Cc1nn(-c2ccc(N3CCCCC3)nn2)c(C)c1CCC(=O)Nc1ccc(F)cc1F`, the activation was inactive: 2.47%.

Take `COc1ccc(S(=O)(=O)N2CCC(C(=O)Nc3ccccc3)CC2)cc1OC`: the activation was inactive: 16.4%.

In the case of `CCOC(=O)c1c(C)[nH]c(C)c1S(=O)(=O)NCC(=O)Nc1cccc(C#N)c1`, the activation was inactive: 7.67%.

As to `COc1cc(OC)cc(N2C(=O)N(Cc3ccc(C(C)(C)C)cc3)c3ccccc3S2(=O)=O)c1`, the activation is inactive: -1.28%.

Take `COc1cccc(NC(=O)CC(=O)Nc2ccc3nc4n(c(=O)c3c2)CCCCC4)c1`: the activation is inactive: -10.5%.

Take `Cc1nc2ccc(S(=O)(=O)CCC(=O)Nc3ccc(Cl)cc3)cc2s1`: the activation was inactive: 3.87%.

For the compound `COC(=O)c1scc(-c2ccc(C)cc2)c1S(=O)(=O)N1CCN(c2ccccc2)CC1`, the activation is inactive: -9.76%.

On to `COc1ccc(OC)c(NC(=O)CN2C(=O)CC(C)Sc3ccccc32)c1` (configuration not stated), for which the activation was inactive: 22%.

In the case of `O=C(CCOc1ccccc1)N(Cc1cccnc1)c1nc2ccc(Cl)cc2s1`, the activation is inactive: -4.33%.

As for `CCOc1ccc(NC(=O)CSc2oc(-c3ccc(F)cc3)nc2S(=O)(=O)c2ccc(C)cc2)cc1`, the activation was inactive: -4.78%.

On to `O=C(Nc1ccc(Br)cc1F)c1cc(S(=O)(=O)NC2CCCCC2)ccc1F`, for which the activation was inactive: -3.53%.

Take `Cc1nc2nc(NC(=O)c3ccc(C(C)(C)C)cc3)[nH]n2c(=O)c1Cc1ccccc1`: the activation was inactive: 9.36%.

On to `Cc1ccc(CN(Cc2ccco2)C(=O)c2oc3cc(Br)ccc3c2C)cc1`, for which the activation is inactive: -21.4%.

With `Clc1ccccc1-c1nnc(COc2ccccc2)o1`, the activation is inactive: 46.4%.

Regarding `Cc1ccc(-n2c(=O)c3c4c(sc3n(Cc3cc(=O)n5ccccc5n3)c2=O)CCC4)cc1C`, the activation was inactive: -5.43%.

As to `COc1ccc(CNC(=O)Cn2ccc3cc(S(=O)(=O)N4CCCCC4)ccc32)cc1OC`, the activation is inactive: 1.55%.

For `C/C=C(/C(=C/C)c1ccc(OC(C)=O)cc1)c1ccc(OC(C)=O)cc1`, the activation was inactive: 42.4%.

For the compound `COc1cc(CN2CCN(S(=O)(=O)c3ccc(NC(C)=O)cc3)CC2)cc(OC)c1OC`, the activation is inactive: -2.66%.

On to `CCOC(=O)c1cc(C)n(CC2CCC(C(=O)Nc3ccccc3OC)CC2)c1C` (configuration not stated), for which the activation was inactive: 1.39%.

Take `CCc1ccc(N(CC)C(=O)Cn2nc(Cc3cccnc3)c3ccccc3c2=O)cc1`: the activation is inactive: -40%.

Take `CCn1cc(C(=O)NCCc2ccc(OC)c(OC)c2)c(=O)c2cc(S(=O)(=O)N3CCCCCC3)ccc21`: the activation was inactive: 2.59%.

Turning to `CCOC(=O)c1sc2ccccc2c1S(=O)(=O)Nc1ccc(C(C)=O)cc1`, the activation is inactive: 22.1%.

Consider `Cc1cccc(Cn2c(=O)n(Cc3ccccc3)c(=O)c3c2c2cc(C)ccc2n3C)c1`, for which the activation was inactive: -1.59%.

Turning to `CC(=O)c1ccc(NS(=O)(=O)c2c(C)nc3scc(C)n3c2=O)cc1`, the activation is inactive: 15.2%.

As to `Cc1ccc2oc(-c3ccc(C)c(NC(=O)C(C)(C)Oc4ccc(Cl)cc4)c3)nc2c1`, the activation was inactive: -2.35%.

With `COc1ccc(Cl)cc1NC(=O)N(C)CCc1c(C)nn(C)c1C`, the activation was inactive: 16.2%.

For the compound `COc1ccccc1NC(=O)c1oc2ccccc2c1NC(=O)COc1cccc(C)c1`, the activation is inactive: -4.62%.

As for `O=C(OCc1ccccc1)c1ccc(O)cc1`, the activation is active: 68.1%.

`CCc1ccc(NC(=O)Cn2c(=O)n(CCC(C)C)c(=O)c3cccnc32)cc1`: the activation was inactive: 24.5%.

Regarding `COc1ccc(-c2cc(C(F)(F)F)n3nc(-c4ccccc4)cc3n2)cc1OC`, the activation is inactive: 32%.

In the case of `COc1ccccc1NC(=O)c1c(NCc2ccc(C)o2)sc2c1CCCCC2`, the activation is inactive: -18.6%.

For `CCOC(=O)N1CCc2c(sc3c2C(=O)NC(c2cc(OC)c(OC)c(OC)c2)N3)C1` (configuration not stated), the activation is inactive: -8.65%.

`CCOC(=O)c1cc(S(=O)(=O)Nc2cc(F)ccc2C)[nH]n1`: the activation was inactive: -3.57%.

On to `CCCc1nn2c(=O)cc(COC(=O)c3ccccc3NC(=O)COc3ccccc3)nc2s1`, for which the activation was inactive: -2.81%.

In the case of `CCc1ccccc1NS(=O)(=O)c1ccc2c(c1)CC(=O)N2`, the activation is inactive: -0.165%.

`CC(C)(C)C(=O)OCOC(=O)[C@@H]1N2C(=O)[C@@H](NC(=O)[C@H](N)c3ccccc3)[C@H]2SC1(C)C`: the activation is inactive: 20.9%.

In the case of `CC(=O)Nc1nonc1-c1nnc(SCc2ccccc2F)n1C`, the activation was inactive: 0.905%.

Take `CC(=O)c1ccc(N2CCN(c3ncnc4c3c(-c3ccccc3)cn4-c3ccc(Cl)cc3)CC2)cc1`: the activation was inactive: -25.9%.

Take `Cc1ccc(/C=C/c2onc(C)c2S(=O)(=O)N2CCC(C(=O)Nc3ccccc3C(F)(F)F)CC2)cc1`: the activation is inactive: -29.3%.

Take `CCCCSc1nnc2n(-c3ccc(OC)cc3)c(=O)c3c4c(sc3n12)COC(C(C)C)C4` (configuration not stated): the activation is inactive: -6.27%.

In the case of `CC(=O)c1ccc(NC(=O)c2cc(C)nc3c2c(C)nn3-c2ccc(C)cc2)cc1`, the activation was inactive: -6.27%.

As to `Cc1cccc2c1N(Cc1ccccc1OCCC(C)C)C(=O)C2=O`, the activation is inactive: -44.6%.

For the compound `COc1ccc2c(c1)c(=O)c(S(=O)(=O)c1ccccc1)cn2CC(=O)Nc1ccc(C)c(Cl)c1`, the activation is inactive: -5.29%.

As to `COc1ccc(-n2c(=O)c3c(c4cc(OC)ccc4n3C)n(Cc3cccc(C)c3)c2=O)cc1`, the activation is inactive: -0.201%.

`CCOC(=O)c1c(C)[nH]c(C)c1S(=O)(=O)N1CCCC(C(=O)NCc2ccc(N(C)C)cc2)C1` (configuration not stated): the activation is inactive: -24.9%.

With `CC(C)CC(=O)Nc1nnc(S(=O)(=O)N(C)Cc2ccc(Cl)cc2)s1`, the activation is inactive: -11.2%.

As for `COc1ccc(-n2cc(C(=O)NCCc3cc(OC)ccc3OC)c3ccccc3c2=O)cc1`, the activation was inactive: -17.1%.

Turning to `CCC(C(=O)Nc1cccc(-c2nc3cccnc3s2)c1C)c1ccccc1` (configuration not stated), the activation is inactive: -25.9%.

On to `CNC(=O)CSc1cn(CC(=O)N2CCCCCC2)c2ccccc12`, for which the activation was inactive: -11%.
